Assay results published in the supplement of paper PMC12217912.
Some of the results follow. The full chains were built here from the parent and the listed change. Inactive controls read about 0.05.

B1: TEV protease; numbered along this chain (parent)
chain: MGESLFKGPRDYNPISSSICHLTNESDGHTTSLYGIGFGPFIITNKHLFRRNNGTLVVQSLHGVFKVKDTTTLQQHLVDGRDMIIIRMPKDFPPFPQKLKFREPQREERICLVTTNFQTKSMSSMVSDTSCTFPSGDGIFWKHWIQTKDGQCGSPLVSTRDGFIVGIHSASNFTNTNNYFTSVPKNFMELLTNQEAQQWVSGWRLNADSVLWGGHKVFMVKPEEPFQPVKEATQL

Variants of: B1
Experiment: raw area under fraction-flipped curve 0-4 h after induction (AUC4h, not background-subtracted), DNA-recorder readout of cleavage of the substrate (dimensionless); higher = more cleavage of the substrate by the protease variant
Settings: temperature: 34 °C; time window: 0-4 h after rhamnose induction
Protocol: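 In vivo DNA recorder in E. coli TOP10(DE3) ΔrhaA at 34 °C. Each TEVp single-site mutant (parent TEVp 0) is paired with a single-site variant of the 7-mer TEVs (canonical ENLYFQ|S). The substrate sits between flexible linkers in a Bxb1-sfGFP-TEVs-SsrA fusion, so cleavage stabilises Bxb1 and speeds flipping of a recombination array, read by NGS. The value is the raw area under the fraction-flipped curve over 0-4 h after rhamnose induction (AUC4h), with ≥20 reads per time point. It is not background-subtracted; inactive controls average about 0.047.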
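Also: Bxb1 expression induced with 0.2% (w/v) L-rhamnose at OD600 near 0.5, cultures sampled hourly, flipped fraction per protease–substrate barcode pair counted by paired-end Illumina sequencing.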

**Q.** Which “area with substrate ENLYFQA” value does the source give for MGESLFKGPRDYNPISSSICHLTNESDGHTFSLYGIGFGPFIITNKHLFRRNNGTLVVQSLHGVFKVKDTTTLQQHLVDGRDMIIIRMPKDFPPFPQKLKFREPQREERICLVTTNFQTKSMSSMVSDTSCTFPSGDGIFWKHWIQTKDGQCGSPLVSTRDGFIVGIHSASNFTNTNNYFTSVPKNFMELLTNQEAQQWVSGWRLNADSVLWGGHKVFMVKPEEPFQPVKEATQL [T31F] here?
**A.** 0.0998

**Q.** And the “area with substrate ENLYFQC” value?
**A.** 0.116

**Q.** And the “area with substrate ENLYFQD” value?
**A.** 0.0679

**Q.** And the “area with substrate ENLYFQG” value?
**A.** 0.089

**Q.** What about the “area with substrate ENLYFQH” value of the same variant?
**A.** 0.0774

**Q.** And the “area with substrate ENLYFQI” value?
**A.** 0.0614

**Q.** And the “area with substrate ENLYFQK” value?
**A.** 0.0631

**Q.** And the “area with substrate ENLYFQL” value?
**A.** 0.0761

**Q.** And the “area with substrate ENLYFQM” value?
**A.** 0.123

**Q.** And the “area with substrate ENLYFQN” value?
**A.** 0.0653

**Q.** And the “area with substrate ENLYFQP” value?
**A.** 0.0467

**Q.** What about the “area with substrate ENLYFQQ” value of the same variant?
**A.** 0.0663

**Q.** And the “area with substrate ENLYFQR” value?
**A.** 0.0674

**Q.** What about the “area with substrate ENLYFQS” value of the same variant?
**A.** 0.0986

**Q.** What about the “area with substrate ENLYFQT” value of the same variant?
**A.** 0.0567

**Q.** What about the “area with substrate ENLYFQV” value of the same variant?
**A.** 0.0788

**Q.** And the “area with substrate ENLYFQW” value?
**A.** 0.0832

**Q.** What about the “area with substrate ENLYFQY” value of the same variant?
**A.** 0.0963

**Q.** With MGESLFKGPRDYNPISSSICHLTNESDGHTTSLYGIGFGPFIITIKHLFRRNNGTLVVQSLHGVFKVKDTTTLQQHLVDGRDMIIIRMPKDFPPFPQKLKFREPQREERICLVTTNFQTKSMSSMVSDTSCTFPSGDGIFWKHWIQTKDGQCGSPLVSTRDGFIVGIHSASNFTNTNNYFTSVPKNFMELLTNQEAQQWVSGWRLNADSVLWGGHKVFMVKPEEPFQPVKEATQL [N45I] as the variant, how does the “area with substrate ENLYFQA” value read?
**A.** 0.0516

**Q.** What about the “area with substrate ENLYFQC” value of the same variant?
**A.** 0.059

**Q.** What about the “area with substrate ENLYFQD” value of the same variant?
**A.** 0.034

**Q.** What about the “area with substrate ENLYFQE” value of the same variant?
**A.** 0.0585

**Q.** And the “area with substrate ENLYFQF” value?
**A.** 0.0482

**Q.** What about the “area with substrate ENLYFQG” value of the same variant?
**A.** 0.0553

**Q.** And the “area with substrate ENLYFQH” value?
**A.** 0.0569

**Q.** And the “area with substrate ENLYFQI” value?
**A.** 0.053

**Q.** And the “area with substrate ENLYFQL” value?
**A.** 0.0594

**Q.** And the “area with substrate ENLYFQM” value?
**A.** 0.0454

**Q.** What about the “area with substrate ENLYFQN” value of the same variant?
**A.** 0.0537

**Q.** And the “area with substrate ENLYFQP” value?
**A.** 0.0492

**Q.** And the “area with substrate ENLYFQQ” value?
**A.** 0.051

**Q.** What about the “area with substrate ENLYFQR” value of the same variant?
**A.** 0.0604

**Q.** And the “area with substrate ENLYFQS” value?
**A.** 0.0569

**Q.** And the “area with substrate ENLYFQT” value?
**A.** 0.0572

**Q.** And the “area with substrate ENLYFQW” value?
**A.** 0.0546

**Q.** What about the “area with substrate ENLYFQY” value of the same variant?
**A.** 0.0266

**Q.** What does the source list for MGESLFKGPRDYNPISSSICHLTNESDGHTTSLYGIGFGPFIITHKHLFRRNNGTLVVQSLHGVFKVKDTTTLQQHLVDGRDMIIIRMPKDFPPFPQKLKFREPQREERICLVTTNFQTKSMSSMVSDTSCTFPSGDGIFWKHWIQTKDGQCGSPLVSTRDGFIVGIHSASNFTNTNNYFTSVPKNFMELLTNQEAQQWVSGWRLNADSVLWGGHKVFMVKPEEPFQPVKEATQL [N45H]?
**A.** area with substrate ENLYFQA: 0.0503; area with substrate ENLYFQC: 0.0596; area with substrate ENLYFQE: 0.0702; area with substrate ENLYFQG: 0.0613; area with substrate ENLYFQH: 0.0593; area with substrate ENLYFQI: 0.0536; area with substrate ENLYFQK: 0.0576; area with substrate ENLYFQL: 0.0582; area with substrate ENLYFQM: 0.0541; area with substrate ENLYFQN: 0.0614; area with substrate ENLYFQP: 0.0884; area with substrate ENLYFQR: 0.064; area with substrate ENLYFQS: 0.0595; area with substrate ENLYFQT: 0.0581; area with substrate ENLYFQV: 0.0454; area with substrate ENLYFQW: 0.0599; area with substrate ENLYFQY: 0.05

**Q.** Which “area with substrate ENLYFQA” value does the source give for MGESLFKGPRDYNPISSSICHLTNESDGHTTSLYGIGFGPFIIKNKHLFRRNNGTLVVQSLHGVFKVKDTTTLQQHLVDGRDMIIIRMPKDFPPFPQKLKFREPQREERICLVTTNFQTKSMSSMVSDTSCTFPSGDGIFWKHWIQTKDGQCGSPLVSTRDGFIVGIHSASNFTNTNNYFTSVPKNFMELLTNQEAQQWVSGWRLNADSVLWGGHKVFMVKPEEPFQPVKEATQL [T44K] here?
**A.** 0.0588

**Q.** What about the “area with substrate ENLYFQC” value of the same variant?
**A.** 0.0392

**Q.** What about the “area with substrate ENLYFQD” value of the same variant?
**A.** 0.0523

**Q.** And the “area with substrate ENLYFQG” value?
**A.** 0.0481

**Q.** What about the “area with substrate ENLYFQM” value of the same variant?
**A.** 0.0383

**Q.** What about the “area with substrate ENLYFQN” value of the same variant?
**A.** 0.0458

**Q.** What about the “area with substrate ENLYFQP” value of the same variant?
**A.** 0.0593

**Q.** What about the “area with substrate ENLYFQS” value of the same variant?
**A.** 0.0467

**Q.** And the “area with substrate ENLYFQT” value?
**A.** 0.0476

**Q.** And the “area with substrate ENLYFQW” value?
**A.** 0.0235

**Q.** And the “area with substrate ENLYFQY” value?
**A.** 0.0413
